Measurements published in patent publication US8592455B2 (priority 2008, dated 2013).

system: KMS11 cells; assay: cells; details: Homo sapiens, KMS-11, 72 h, read-out: KMS11-lluc EC50

First: N[C@H]1CCC[C@@H](c2ccncc2NC(=O)c2ccc(F)c(-c3cccc(F)c3F)n2)C1 [Example 79, N-(4-((1R,3S)-3-aminocyclohexyl)pyridin-3-yl)-6-(2,3-difluorophenyl)-5-fluoropicolinamide]
Second: N[C@H]1CCC[C@@H](c2ccncc2NC(=O)c2ccc(F)c(-c3ccc(F)cc3F)n2)C1 [Example 82, N-(4-((1R,3S)-3-aminocyclohexyl)pyridin-3-yl)-6-(2,4-difluorophenyl)-5-fluoropicolinamide]
The EC50 of the first is lower: 4600 nM for the first, > 10000 nM for the second.

Going from `N[C@H]1CCC[C@@H](c2ccncc2NC(=O)c2nc(-c3c(F)cccc3F)ccc2F)C1` [Example 80, N-(4-((1R,3S)-3-aminocyclohexyl)pyridin-3-yl)-6-(2,6-difluorophenyl)-3-fluoropicolinamide] to `Nc1cc(F)c(-c2c(F)cccc2F)nc1C(=O)Nc1cnccc1[C@@H]1CCC[C@H](N)C1` [Example 100, 3-amino-N-(4-((1R,3S)-3-aminocyclohexyl)pyridin-3-yl)-6-(2,6-difluorophenyl)-5-fluoropicolinamide], the EC50 falls from 7900 nM to 280 nM (28-fold).

Going from `N[C@@H]1C[C@H](c2ccncc2NC(=O)c2cccc(-c3ccccc3F)n2)CC[C@@H]1O` [Example 83, N-(4-((1R,3R,4S)-3-amino-4-hydroxycyclohexyl)pyridin-3-yl)-6-(2-fluorophenyl)picolinamide] to `C[C@H]1CN(c2ccncc2NC(=O)c2ccc(F)c(-c3ccccc3F)n2)C[C@@H](O)[C@@H]1O` [Example 114, N-(4-((3R,4R,5S)-3,4-dihydroxy-5-methylpiperidin-1-yl)pyridin-3-yl)-5-fluoro-6-(2-fluorophenyl)picolinamide], the EC50 falls from > 10000 nM to 640 nM.

Going from `Nc1ccc(-c2c(F)cccc2F)nc1C(=O)Nc1cnccc1C1=CC(N)CCC1` (stereo not shown) [Example 107, 3-amino-N-(4-(3-aminocyclohex-1-enyl)pyridin-3-yl)-6-(2,6-difluorophenyl)picolinamide] to `C[C@H]1CN(c2ccncc2NC(=O)c2cccc(-c3c(F)cccc3F)n2)C[C@@H](O)[C@@H]1O` [Example 115, 6-(2,6-difluorophenyl)-N-(4-((3R,4R,5S)-3,4-dihydroxy-5-methylpiperidin-1-yl)pyridin-3-yl)picolinamide], the EC50 falls from 930 nM to 590 nM (1.6-fold). The second is the more potent here.

First: C[C@H]1CN(c2ccncc2NC(=O)c2ccc(F)c(-c3c(F)cccc3F)n2)C[C@@H](O)[C@@H]1O [Example 116, 6-(2,6-difluorophenyl)-N-(4-((3R,4R,5S)-3,4-dihydroxy-5-methylpiperidin-1-yl)pyridin-3-yl)-5-fluoropicolinamide]
Second: C[C@H]1C[C@@H](c2ccncc2NC(=O)c2ccc(F)c(-c3c(F)cccc3F)n2)C[C@@H](O)[C@@H]1O [Example 117, 6-(2,6-Difluorophenyl)-N-(4-((1R,3R,4R,5S)-3,4-dihydroxy-5-methylcyclohexyl)pyridin-3-yl)-5-fluoropicolinamide]
The EC50 of the first is 8.6-fold lower: 290 nM for the first, 2500 nM for the second.

First: C[C@H]1CN(c2ccncc2NC(=O)c2ccc(F)c(-c3cccnc3)n2)C[C@@H](N)[C@@H]1O [Example 118, N-(4-((3R,4R,5S)-3-amino-4-hydroxy-5-methylpiperidin-1-yl)pyridin-3-yl)-3-fluoro-2,3′-bipyridine-6-carboxamide]
Second: C[C@H]1CN(c2ccncc2NC(=O)c2ccc(F)c(-c3ccncc3)n2)C[C@@H](N)[C@@H]1O [Example 120, N-(4-((3R,4R,5S)-3-amino-4-hydroxy-5-methylpiperidin-1-yl)pyridin-3-yl)-3-fluoro-2,4′-bipyridine-6-carboxamide]
The EC50 of the first is 1.8-fold lower: 4600 nM for the first, 8500 nM for the second. The first is the more potent here.

`C[C@H]1CN(c2ccncc2NC(=O)c2ccc(F)c(-c3ccncc3F)n2)C[C@@H](N)[C@@H]1O` [Example 119, N-(4-((3R,4R,5S)-3-amino-4-hydroxy-5-methylpiperidin-1-yl)pyridin-3-yl)-3,3′-difluoro-2,4′-bipyridine-6-carboxamide] was tested, and the EC50 was 1200 nM.
